Data as given in PubChem BioAssay AID588591 (National Center for Advancing Translational Sciences (NCATS), 2011).
Out of some 390,000 compounds screened, about 4,700 (1.2%) were called active. Another 4% or so got no clear call; they are omitted. Calls follow the shape of the dose curve; as a rule, active = well fitted inhibition curve with a large enough effect; inconclusive = small, poorly fitted or top-dose-only effect, or another doubt; inactive = no such curve, though single readings can be large or run the other way. Only a part is listed here, and it is no random draw. The source holds several records for some structures; these can differ, active in one and inactive in another.

Each molecule was assayed against DNA polymerase eta (Homo sapiens) (UniProt Q9Y253) (assay: qHTS for Inhibitors of Polymerase Eta). Conditions: recombinant Pol eta, fluorescent DNA replication assay; series mostly up to 114 µM; activity change, negative = inhibition: at the top concentration.
Summary of the method: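 Fluorescent replication assay: 50 nM final substrate added after a 15 min room-temperature compound preincubation with 10 nM enzyme. Signal taken at 0 min and again at 10 min.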
% is scaled to controls: 0 for no effect and ±100 for the full control effect; potency is read from the fitted curve at half-maximal effect.

Chain of UniProt Q9Y253 (Q9Y253 whole entry, looked up): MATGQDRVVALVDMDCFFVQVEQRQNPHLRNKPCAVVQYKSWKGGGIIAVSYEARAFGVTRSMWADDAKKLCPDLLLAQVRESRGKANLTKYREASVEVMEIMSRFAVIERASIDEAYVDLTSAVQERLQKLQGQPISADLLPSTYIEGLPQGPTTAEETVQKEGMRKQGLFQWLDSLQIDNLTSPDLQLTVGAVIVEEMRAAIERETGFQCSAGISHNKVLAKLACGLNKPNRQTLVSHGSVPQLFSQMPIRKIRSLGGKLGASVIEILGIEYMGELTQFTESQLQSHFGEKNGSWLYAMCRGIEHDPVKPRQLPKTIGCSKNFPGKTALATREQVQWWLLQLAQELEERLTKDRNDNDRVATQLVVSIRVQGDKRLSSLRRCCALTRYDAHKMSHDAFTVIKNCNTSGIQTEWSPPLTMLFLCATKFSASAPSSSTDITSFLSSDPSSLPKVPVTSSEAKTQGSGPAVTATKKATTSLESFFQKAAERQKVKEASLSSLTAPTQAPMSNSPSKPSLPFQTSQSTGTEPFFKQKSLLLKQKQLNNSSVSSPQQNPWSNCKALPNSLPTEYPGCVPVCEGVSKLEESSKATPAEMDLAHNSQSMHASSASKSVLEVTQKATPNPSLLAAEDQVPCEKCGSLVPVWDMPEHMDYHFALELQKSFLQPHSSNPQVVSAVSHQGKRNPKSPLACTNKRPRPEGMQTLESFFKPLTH

Potency, inactive:
CCN1CCN(Cc2ccc(NC(=O)c3ccc(C)c(NC(=O)N4CCNC4=O)c3)cc2C(F)(F)F)CC1
NC[C@H](O)c1ccc(O)c(O)c1

Potency, active:
O=c1cc2oc3cc(O)c(O)cc3c(-c3ccccc3[N+](=O)[O-])c-2cc1O 0.794 µM
CC1=NOC(=O)/C1=C\c1ccc(-c2ccc(Cl)cc2Cl)o1 14.1 µM
NNc1cc([N+](=O)[O-])cc2c1C(=O)N(Cc1ccccc1)S2=O (stereo not given) 44.7 µM
CCOC(=O)c1ccccc1NC(=O)c1ccc2c(SCC(=O)O)c3c(nc2c1)CCCC3 50.1 µM
O=C(O)c1ccc(CSc2n[nH]c(-c3ccco3)n2)cc1 11.2 µM
CC(=O)Oc1cc(C(=O)OCC(=O)NC23CC4CC(CC(C4)C2)C3)cc(OC(C)=O)c1OC(C)=O 3.16 µM
COC(=O)COc1ccc(C2Nc3c(Cl)ccc(C(=O)O)c3C3C=CCC32)cc1 (stereo not given) 28.2 µM
CSc1nc(N(C)CCO)c2sc3nc(-c4ccco4)c4c(c3c2n1)CCC4 8.91 µM
Cc1c(C(=O)O)sc2nc(/C=C/c3cccc(F)c3)[nH]c(=O)c12 79.4 µM
O=C(Nc1cccc(C2=NCCN2)c1)Nc1cccc(C2=NCCN2)c1 22.4 µM
COCCOC(=O)C1=C(C)NC(=O)NC1c1ccco1 (stereo not given) 79.4 µM
CCCCCc1c2c(cc(O)c1C(=O)O)OC(=O)c1cc(C(=O)CCCC)c(OC)cc1O2 79.4 µM
CC(C)[C@H](NC(=O)C1CC(=O)N(c2ccc3c(c2)OCO3)C1)C(=O)NC1CCCC1 (stereo not given in full) 31.6 µM
CN(C)c1ccc(NC(=O)CSCc2nc3c(nnn3Cc3ccc(F)cc3)c(=O)[nH]2)cc1 50.1 µM
Cc1c(Cl)cccc1N=Cc1ccc([N+](=O)[O-])s1 89.1 µM
Cc1c(CCC(=O)NCCCCCC(=O)O)c(=O)oc2cc3occ(-c4ccccc4)c3cc12 22.4 µM
CCN(C(=O)C(C)N1C(=O)/C(=C/c2ccco2)SC1=S)C1CCS(=O)(=O)C1 (stereo not given) 15.8 µM
Cc1cc2oc(C(=O)Nc3ccc(S(=O)(=O)Nc4onc(C)c4C)cc3)cc(=O)c2cc1C 79.4 µM
CC(=O)Oc1ccc(C(=O)Nc2cccc(C(=O)c3cccc(NC(=O)c4ccc(OC(C)=O)cc4)c3)c2)cc1 3.16 µM
CC(Oc1ccccc1)C(=O)N=Nc1c(O)[nH]c2ccc([N+](=O)[O-])cc12 (stereo not given) 35.5 µM
Cc1cccc(N2C(=O)/C(=C\c3ccc(C(=O)O)cc3)c3ccccc3C2=O)c1 44.7 µM
CC(=O)Nc1ccc(C=NNc2ccc([N+](=O)[O-])cc2S(=O)(=O)Nc2ccccc2C(=O)O)cc1 50.1 µM
Cc1c(C(=O)Nc2ccc(S(=O)(=O)Nc3ncccn3)cc2)oc2ccccc12 28.2 µM

Activity change, negative = inhibition, inactive:
CC(C)(C)OC(=O)N1CCC[C@H]1C(=O)N/N=C/c1cccc2nccnc12 30.9%
Cc1c(-n2c(SCC(=O)O)nnc2-c2ccccc2Br)c(=O)n(-c2ccccc2)n1C 47.8%
Cc1cc2nncn2c2ccccc12 -13.4%
COC(=O)/C=C1\SC(=Nc2ccc(Cl)c(Cl)c2)NC1=O -12.6%
CCN(CC(=O)NCCC1=CCCCC1)S(=O)(=O)c1ccccc1 32.3%
CC1(C)CC(=O)C2=C(C1)N(CCN1CCOCC1)C1=C(C(=O)CC(C)(C)C1)C2c1cccc(F)c1 2.1%
CCC(=O)Nc1c(C#N)c2nc3ccccc3nc2n1-c1ccc(C)cc1 45.9%
O=C(O)c1ccc(N2CCCC2=O)cc1 7.8%
CC1=NN(c2ccccc2)C(=O)C1/C=C1/NC(=S)NC1=O (stereo not given) 4.87%
CCOC(=O)c1cc2c(=O)n3cccc(C)c3nc2n(Cc2ccco2)c1=NC(=O)c1ccccc1 14.7%
CCOC(=O)N1CCN(c2ncnc3c2[nH]c2ccc(F)cc23)CC1 -8.84%
CCOc1ccc(-n2nc(CO)c(C(=O)NCc3ccc(Cl)cc3)n2)cc1 15.1%
Cc1cc(-c2n[nH]c(=S)n2/N=C/c2ccco2)n[nH]1 31.1%
C[C@H]1CN([C@@H](C)CO)C(=O)c2cccc(NC(=O)Nc3ccc(C(F)(F)F)cc3)c2O[C@@H]1CN(C)S(=O)(=O)c1ccccc1 -16.1%
COc1ccccc1CC(=O)Nc1cccc(C(=O)Nc2nccs2)c1 24.2%
O=C(CC1CS(=O)(=O)CC1CC(=O)Nc1ccc2c(c1)OCCO2)Nc1ccc2c(c1)OCCO2 (stereo not given) 32.9%
CCCCCCN1C[C@H](n2cc(-c3ccc(F)cc3)nn2)[C@@H](O)C[C@@H]1c1ccccc1 -16%
O=C(Nc1nnc(S(=O)(=O)N2CCCCCC2)s1)c1cccc(Br)c1 -3.69%
Cc1ccccc1N1C(=O)N(c2cccc(C(F)(F)F)c2)C2CS(=O)(=O)CC21 (stereo not given) -3%
CCc1nnc2c(Nc3cccc(C(C)=O)c3)nc3ccccc3n12 17.6%
CCN1C(=O)[C@H]2[C@@H](c3ccc(-c4ccc(C(C)=O)cc4)c(OC)c3)N3CCCC[C@@]3(C(=O)OC)[C@H]2C1=O -10.1%
COc1cc(Cl)c(C)cc1NC(=O)c1ccc2c(SCC(=O)O)c3c(nc2c1)CCCC3 -15.9%
CN1CCN(c2ccc([N+](=O)[O-])cc2C(=O)N2CCOCC2)CC1 1.31%
Cc1ccc([C@H]2C(C#N)=C(N)Oc3cc(C)oc(=O)c32)o1 -22.4%
COc1cc(/C=C(/C#N)c2nc3ccccc3[nH]2)ccc1OC(=O)c1ccco1 -6.6%
Cc1ccc(-c2ccc(=O)n(Cc3cc(C)ccc3C)n2)cc1 -18.7%
O=C(CN1C(=O)COc2ccc(S(=O)(=O)N3CCCCCC3)cc21)NCc1ccc(F)cc1 -17.5%
O=C(CSc1ncn(-c2ccccc2)n1)N1CCN(c2ccccc2)CC1 10.7%
CCCN(CC1CC1)c1nc(C)nc(Nc2c(Cl)cc(Cl)cc2Cl)c1Cl -9.45% [at 57.1 µM]
O=C(CSc1nc2c([nH]c3ccccc32)c(=O)n1-c1cccc(Cl)c1)N1CCOCC1 -9.36%
O=C(CN1N=C(c2ccccc2)CCC1=O)NCc1ccc(F)cc1Cl 14.1%
COC(=O)c1cc(C)cc(=O)o1 34.2%
CCC(=O)c1cc(-c2nc3ccccc3n2C)n(C)c1 8.94%
COCc1cc(C)nc2sc3c(c12)NC(c1ccccc1C(=O)O)N(c1ccc(OC)cc1)C3=O (stereo not given) 16.2%
C=CC[C@H](CC(=O)N(CCO)Cc1ccccc1)C(=O)N[C@@H](COC(=O)[C@H](CC=C)CC(=O)OC(C)(C)C)Cc1c[nH]c2ccccc12 -22.2%
O=C(Cc1cc(=O)[nH][nH]1)N/N=C/C(Cl)=C/c1ccccc1 -13.3%
CCN1C(=O)[C@@H]2[C@@H](c3ccc(-c4ccccc4)cc3)N3CCCC[C@@]3(C(=O)OC)[C@@H]2C1=O -16.4%
Nc1ncnc(Nc2ccc(F)c(Cl)c2)n1 16.9%
O=C(c1cc(O)c(O)c([N+](=O)[O-])c1)c1ccccc1F -9.05%
O=C(NCc1nc2ccccc2[nH]1)C1=C[C@@H](C2CCCCC2)C[C@@H](OCc2ccc(CO)cc2)O1 -9.86%
O=C(CCCN1C(=O)/C(=C\c2cccc(Br)c2)SC1=S)Nc1cccnc1 -9.17%
C=CCC[C@@H](Cc1ccc(F)cc1)C(=O)OC[C@@H](Cc1c[nH]c2ccccc12)NC(=O)[C@@H](CC=C)CC(=O)N(CCO)Cc1ccccc1 -12.7%
CCN(CC)c1ccc2cc(-c3nc(-c4cc(OC)c(OC)c(OC)c4)no3)c(=O)oc2c1 94.7%
CC(C)OCCCNC(=O)CCCn1c(SCC(N)=O)nc2c(sc3ccccc32)c1=O 19.9%
CCOCCCn1c(=NC(=O)c2cccnc2)c(C(=O)OCC)cc2c(=O)n3ccccc3nc21 -16.4%
NC(=O)CSC1=N/C(=C\c2ccco2)C(=O)N1c1ccc(OC(F)F)cc1 31.6%
C[C@H](NC(=O)c1nc[nH]c1C(=O)NCC(=O)OCc1ccccc1)c1ccccc1 -7.25%
CCc1ccc(NC(=O)c2c(C(=O)Nc3ccccc3)sc3nc(C)cc(=O)n23)cc1 -6.6%
O=C(CSc1nccn1-c1cccc(Cl)c1)NO 41.1%
CCN(CC)S(=O)(=O)c1ccc2[nH]cc(C(=O)NCCc3ccccc3)c(=O)c2c1 4.45%
O=C1CC(N2CCOCC2)C(=O)N1c1ccc(Cl)cc1 (stereo not given) 31.4%
COc1cc([C@H]2Oc3cc([C@H]4Oc5cc(O)cc(O)c5C(=O)[C@@H]4O)ccc3O[C@@H]2CO)ccc1O -7.98%
CCc1nn(CC(=O)NCCCc2ccccc2)c(=O)c2cc3c(OC)cccc3n12 -8%
O=C(c1cc2c(s1)-c1ccccc1S(=O)(=O)C2)N1CCCC1 31%
C=CC[C@@H](Cc1ccc(F)cc1)C(=O)OC[C@H]1CCCN1C(=O)[C@H](CC=C)CC(=O)N[C@H](CO)Cc1ccccc1 -18.1%
COc1ccc(-c2nn(-c3ccccc3)cc2/C=C(\C#N)C(N)=O)cc1[N+](=O)[O-] 8.48%
N#CC(=C(O)COC(=O)CCCNC(=O)c1ccc(Cl)cc1)c1nc2ccccc2[nH]1 -16%
O=C(Nc1cccc2c1C(=O)NC2=O)c1ccc(S(=O)(=O)N2CCCC2)cc1 5.16%
CC(C)C(=O)Nc1ccc(C(=O)NNC(=S)NC(=O)c2ccco2)cc1 26.6%
O=C(Nc1ccc(Cl)cc1Cl)c1cccc(N2C(=O)C=CC2=O)c1 40.6%
CSc1ccccc1NC(=O)COC(=O)c1c[nH]c(=O)[nH]c1=O 40.8%
Cc1cc(C)n2nc(CC(=O)NNC(=O)c3ccc(N(C)C)cc3)nc2n1 17.1%
O=C(NCCN1C(=O)S/C(=C\c2cccnc2)C1=O)c1ccc(S(=O)(=O)N2CCCC2)cc1 -14.2%
Cc1ccc(C)c(NC(=O)Cn2nnc(C(=O)Nc3c(C)cccc3C)c2N)c1 -3.91%
O=C(/C=C/c1ccc(-c2ccccc2)o1)c1ccccc1 -25.1%
